Measurements as given in PMC9911399, “Two distinct binding modes provide the RNA-binding protein RbFox with extraordinary sequence specificity”.
Numbering of substitutions follows the chain as printed; changes in the protein carry UniProt numbers. This is one part of the list.

T1: RBFOX1 RRM (Homo sapiens, UniProt Q9NWB1 109-208)
T1 sequence: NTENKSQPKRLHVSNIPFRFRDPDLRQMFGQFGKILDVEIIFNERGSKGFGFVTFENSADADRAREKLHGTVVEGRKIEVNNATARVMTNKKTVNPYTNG

B1: CACGAGA (DNA:RNA)
RNA: GGGAGACCGGAAUUCAGAUUGUCCCACGAGAUUAAAUCCCGUCGUAGCCACCA
DNA 1: CAATCTGAATTCCGGTCTCCC
DNA 2: TGGTGGCTACGACGGGATT
B2: GCGGGAC (DNA:RNA)
RNA: B1 RNA with C25G, A26C, C27G, A29G, G30A, A31C
DNA 1: CAATCTGAATTCCGGTCTCCC
DNA 2: TGGTGGCTACGACGGGATT
B3: CAAGUCU (DNA:RNA)
RNA: B1 RNA with C27A, A29U, G30C, A31U
DNA 1: CAATCTGAATTCCGGTCTCCC
DNA 2: TGGTGGCTACGACGGGATT
B4: CAGCCUA (DNA:RNA)
RNA: B1 RNA with C27G, G28C, A29C, G30U
DNA 1: CAATCTGAATTCCGGTCTCCC
DNA 2: TGGTGGCTACGACGGGATT
B5: UGCACGU (DNA:RNA)
RNA: B1 RNA with C25U, A26G, G28A, A29C, A31U
DNA 1: CAATCTGAATTCCGGTCTCCC
DNA 2: TGGTGGCTACGACGGGATT
B6: GAGCGAC (DNA:RNA)
RNA: B1 RNA with C25G, C27G, G28C, A29G, G30A, A31C
DNA 1: CAATCTGAATTCCGGTCTCCC
DNA 2: TGGTGGCTACGACGGGATT
B7: CGACGCG (DNA:RNA)
RNA: B1 RNA with A26G, C27A, G28C, A29G, G30C, A31G
DNA 1: CAATCTGAATTCCGGTCTCCC
DNA 2: TGGTGGCTACGACGGGATT
B8: AUCCUGG (DNA:RNA)
RNA: B1 RNA with C25A, A26U, G28C, A29U, A31G
DNA 1: CAATCTGAATTCCGGTCTCCC
DNA 2: TGGTGGCTACGACGGGATT
B9: CGUGCGA (DNA:RNA)
RNA: B1 RNA with A26G, C27U, A29C
DNA 1: CAATCTGAATTCCGGTCTCCC
DNA 2: TGGTGGCTACGACGGGATT
B10: UCAAGUG (DNA:RNA)
RNA: GGGAGACCGGAAUUCAGAUUGUCCUCAAGUGUUAAAUCCCGUCGUAGCCACCA
DNA 1: CAATCTGAATTCCGGTCTCCC
DNA 2: TGGTGGCTACGACGGGATT
B11: CUUGCCG (DNA:RNA)
RNA: B1 RNA with A26U, C27U, A29C, G30C, A31G
DNA 1: CAATCTGAATTCCGGTCTCCC
DNA 2: TGGTGGCTACGACGGGATT
B12: UUUGAAG (DNA:RNA)
RNA: B1 RNA with C25U, A26U, C27U, G30A, A31G
DNA 1: CAATCTGAATTCCGGTCTCCC
DNA 2: TGGTGGCTACGACGGGATT
B13: CAGUAUG (DNA:RNA)
RNA: B1 RNA with C27G, G28U, G30U, A31G
DNA 1: CAATCTGAATTCCGGTCTCCC
DNA 2: TGGTGGCTACGACGGGATT
B14: UUGACCA (DNA:RNA)
RNA: B10 RNA with C26U, A27G, G29C, U30C, G31A
DNA 1: CAATCTGAATTCCGGTCTCCC
DNA 2: TGGTGGCTACGACGGGATT
B15: GACAUUA (DNA:RNA)
RNA: B1 RNA with C25G, G28A, A29U, G30U
DNA 1: CAATCTGAATTCCGGTCTCCC
DNA 2: TGGTGGCTACGACGGGATT
B16: AUCUCGU (DNA:RNA)
RNA: B1 RNA with C25A, A26U, G28U, A29C, A31U
DNA 1: CAATCTGAATTCCGGTCTCCC
DNA 2: TGGTGGCTACGACGGGATT
B17: UCAUCCG (DNA:RNA)
RNA: B10 RNA with A28U, G29C, U30C
DNA 1: CAATCTGAATTCCGGTCTCCC
DNA 2: TGGTGGCTACGACGGGATT
B18: UUAUCCC (DNA:RNA)
RNA: B10 RNA with C26U, A28U, G29C, U30C, G31C
DNA 1: CAATCTGAATTCCGGTCTCCC
DNA 2: TGGTGGCTACGACGGGATT
B19: UGCGAGG (DNA:RNA)
RNA: B1 RNA with C25U, A26G, A31G
DNA 1: CAATCTGAATTCCGGTCTCCC
DNA 2: TGGTGGCTACGACGGGATT
B20: UCAGUAA (DNA:RNA)
RNA: B10 RNA with A28G, G29U, U30A, G31A
DNA 1: CAATCTGAATTCCGGTCTCCC
DNA 2: TGGTGGCTACGACGGGATT
B21: GGGGGGU (DNA:RNA)
RNA: B1 RNA with C25G, A26G, C27G, A29G, A31U
DNA 1: CAATCTGAATTCCGGTCTCCC
DNA 2: TGGTGGCTACGACGGGATT
B22: CGGGUAC (DNA:RNA)
RNA: B1 RNA with A26G, C27G, A29U, G30A, A31C
DNA 1: CAATCTGAATTCCGGTCTCCC
DNA 2: TGGTGGCTACGACGGGATT
B23: UCCAGUU (DNA:RNA)
RNA: B10 RNA with A27C, G31U
DNA 1: CAATCTGAATTCCGGTCTCCC
DNA 2: TGGTGGCTACGACGGGATT
B24: UAGAGAU (DNA:RNA)
RNA: B10 RNA with C26A, A27G, U30A, G31U
DNA 1: CAATCTGAATTCCGGTCTCCC
DNA 2: TGGTGGCTACGACGGGATT
B25: GGGCCAC (DNA:RNA)
RNA: GGGAGACCGGAAUUCAGAUUGUCCGGGCCACUUAAAUCCCGUCGUAGCCACCA
DNA 1: CAATCTGAATTCCGGTCTCCC
DNA 2: TGGTGGCTACGACGGGATT
B26: GGAUUAA (DNA:RNA)
RNA: B25 RNA with G27A, C28U, C29U, C31A
DNA 1: CAATCTGAATTCCGGTCTCCC
DNA 2: TGGTGGCTACGACGGGATT
B27: UUGUAAA (DNA:RNA)
RNA: B1 RNA with C25U, A26U, C27G, G28U, G30A
DNA 1: CAATCTGAATTCCGGTCTCCC
DNA 2: TGGTGGCTACGACGGGATT
B28: GCGAACA (DNA:RNA)
RNA: B1 RNA with C25G, A26C, C27G, G28A, G30C
DNA 1: CAATCTGAATTCCGGTCTCCC
DNA 2: TGGTGGCTACGACGGGATT
B29: UCAGUUA (DNA:RNA)
RNA: B10 RNA with A28G, G29U, G31A
DNA 1: CAATCTGAATTCCGGTCTCCC
DNA 2: TGGTGGCTACGACGGGATT
B30: CUCAUUC (DNA:RNA)
RNA: B1 RNA with A26U, G28A, A29U, G30U, A31C
DNA 1: CAATCTGAATTCCGGTCTCCC
DNA 2: TGGTGGCTACGACGGGATT
B31: UGGGUUG (DNA:RNA)
RNA: B10 RNA with C26G, A27G, A28G, G29U
DNA 1: CAATCTGAATTCCGGTCTCCC
DNA 2: TGGTGGCTACGACGGGATT

Each binder was assayed against T1, RBFOX1 RRM (assay: EMSA; HiTS-Eq, 1 nM pool, 10 min; buffer printed only for the single-RNA assays: 10 mM Tris pH 7.5, 150 mM NaCl, 3.4 mM EDTA, 0.001% NP-40, 30 C). Settings: tags: His6 N-terminal (pET28a); label: 5' 32P.
Procedure, shortened: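 Relative association constants, normalised to the cognate motif, were derived by comparing read counts of each RNA species with those of the control reaction. The RNA sequenced was the free fraction, separated by 8% native PAGE after a 10 min equilibration in 50 µL of 1 nM 5′-radiolabelled RNA (7 randomized nucleotides) with increasing concentrations of purified wild-type or mutant RbFox RRM.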
For B1, the binding signal was 0.0065 KA relative to UGCAUGU.
B2 was tested, and the binding signal was 0.021 KA relative to UGCAUGU.
In the case of B3, the binding signal is reported as 0.00314 KA relative to UGCAUGU.
B4 was tested, and the binding signal was 0.00229 KA relative to UGCAUGU.
B5 was tested, and the binding signal was 0.514 KA relative to UGCAUGU.
For B6, the binding signal was 0.00578 KA relative to UGCAUGU.
B7 was tested, and the binding signal was 0.0108 KA relative to UGCAUGU.
For B8, the binding signal was 0.00785 KA relative to UGCAUGU.
For B9, the binding signal was 0.0172 KA relative to UGCAUGU.
With B10 the binding signal was 0.0132 KA relative to UGCAUGU.
With B11 the binding signal was 0.0116 KA relative to UGCAUGU.
For B12, the binding signal was 0.0216 KA relative to UGCAUGU.
With B13 the binding signal was 0.0141 KA relative to UGCAUGU.
B14 was tested, and the binding signal was 0.00878 KA relative to UGCAUGU.
With B15 the binding signal was 0.00307 KA relative to UGCAUGU.
B16 was tested, and the binding signal was 0.00816 KA relative to UGCAUGU.
For B17, the binding signal was 0.00501 KA relative to UGCAUGU.
In the case of B18, the binding signal is reported as 0.0026 KA relative to UGCAUGU.
With B19 the binding signal was 0.0231 KA relative to UGCAUGU.
In the case of B20, the binding signal is reported as 0.00434 KA relative to UGCAUGU.
B21 was tested, and the binding signal was 0.0254 KA relative to UGCAUGU.
With B22 the binding signal was 0.0309 KA relative to UGCAUGU.
In the case of B23, the binding signal is reported as 0.00643 KA relative to UGCAUGU.
B24 was tested, and the binding signal was 0.00724 KA relative to UGCAUGU.
B25 was tested, and the binding signal was 0.00639 KA relative to UGCAUGU.
B26 was tested, and the binding signal was 0.00613 KA relative to UGCAUGU.
With B27 the binding signal was 0.0106 KA relative to UGCAUGU.
B28 was tested, and the binding signal was 0.0052 KA relative to UGCAUGU.
B29 was tested, and the binding signal was 0.00506 KA relative to UGCAUGU.
For B30, the binding signal was 0.00227 KA relative to UGCAUGU.
For B31, the binding signal was 0.0558 KA relative to UGCAUGU.
